# Measured values: the supplement of paper PMC4604168 (melanoma cell lines)
# Some of the results follow. Single values are uncertain, as repeats are few or missing.
# Experiments:
# Test in all cases: cell count relative to DMSO control; melanoma cells; higher = more viable cells
# Settings in all cases: library dose: low library concentration; 72 h
# MZ2-MEL = test system: MZ2-MEL
# MeWo = test system: MeWo
# RPMI7951 = test system: RPMI7951
# RVH-421 = test system: RVH-421
# SkMel28 = test system: SkMel28
# SkMel2 = test system: SkMel2
# SkMel30 = test system: SkMel30
# SkMel5 = test system: SkMel5
# UACC257 = test system: UACC257
# UACC62 = test system: UACC62
# 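Also: cell number obtained by counting DAPI-stained nuclei in high-throughput microscope images with image analysis software, screen run in 1,536-well plates.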
Compound,cell count (MZ2-MEL),cell count (MeWo),cell count (RPMI7951),cell count (RVH-421),cell count (SkMel28),cell count (SkMel2),cell count (SkMel30),cell count (SkMel5),cell count (UACC257),cell count (UACC62)
"Cc1ccc(NC(=O)c2cccc(N(C)C)c2)cc1NC(=O)c1ccc(O)cc1 + CO[C@@H]1[C@H](N(C)C(=O)c2ccccc2)C[C@H]2O[C@]1(C)n1c3ccccc3c3c4c(c5c6ccccc6n2c5c31)C(=O)NC4 [Midostaurin] (first compound 2 µM, partner dose 0.08 µM)",71.7%,78.6%,82.7%,87.5%,105%,89.1%,92.4%,81.7%,68.5%,82.8%
"Cc1ccc(NC(=O)c2cccc(N(C)C)c2)cc1NC(=O)c1ccc(O)cc1 + Cc1cc(N2CCOCC2)cc2[nH]c(-c3c(NC[C@@H](O)c4cccc(Cl)c4)cc[nH]c3=O)nc12 [BMS536924] (first compound 2 µM, partner dose 0.2 µM)",88.2%,106%,95.5%,90.4%,88.6%,107%,76.6%,94.7%,104%,113%
"NC(=O)c1ccc(N(C(N)=O)c2c(F)cccc2F)nc1-c1ccc(F)cc1F + c1cc(-c2cnn3cc(-c4ccc(OCCN5CCCCC5)cc4)cnc23)ccn1 [Dorsomorphin] (first compound 0.4 µM, partner dose 0.4 µM)",93.4%,90.6%,89.3%,90.9%,93.9%,115%,103%,114%,97.1%,117%
"CCCCCCCCc1ccc(CCC(N)(CO)CO)cc1 [fingolimod] + CCc1ccc(CCOc2ccc(CC3SC(=O)NC3=O)cc2)nc1 [pioglitazone] (first compound 2 µM, partner dose 2 µM)",90.6%,76.4%,65.8%,78.3%,74.7%,89.5%,96.3%,80%,92.7%,66.1%
"NC(=O)c1ccc(N(C(N)=O)c2c(F)cccc2F)nc1-c1ccc(F)cc1F + COc1cc(N2CCC(N3CCN(C)CC3)CC2)ccc1Nc1ncc(Cl)c(Nc2ccccc2S(=O)(=O)C(C)C)n1 [NVP-TAE684] (first compound 0.4 µM, partner dose 0.08 µM)",99.9%,92%,88.8%,97.9%,84.6%,87.5%,96.3%,83.6%,68%,92.4%
"NC(=O)c1ccc(N(C(N)=O)c2c(F)cccc2F)nc1-c1ccc(F)cc1F + COc1ccc(-c2ccc3c(N4CCOCC4)nc(N4C[C@@H](C)O[C@@H](C)C4)nc3n2)cc1CO [KU0063794] (first compound 0.4 µM, partner dose 0.02 µM)",90.9%,86.5%,89.2%,115%,90.5%,108%,92.1%,95.5%,87.1%,89.2%
"Cc1ccc(NC(=O)c2cccc(N(C)C)c2)cc1NC(=O)c1ccc(O)cc1 + NCC(=O)Nc1ccc(-n2nc(C(F)(F)F)cc2-c2ccc3c(ccc4ccccc43)c2)cc1 [OSU03012] (first compound 2 µM, partner dose 1 µM)",63.2%,47.9%,78.7%,80.7%,80.4%,71.9%,40%,95%,88.8%,76.4%
"CCCCCCCCc1ccc(CCC(N)(CO)CO)cc1 [fingolimod] + N#Cc1c(O)c2c(-c3ccc(-c4ccccc4O)cc3)csc2[nH]c1=O [A769662] (first compound 2 µM, partner dose 2 µM)",92.9%,94.2%,70.4%,97.2%,91.3%,95.9%,96.6%,106%,104%,86.1%
"NC(=O)c1ccc(N(C(N)=O)c2c(F)cccc2F)nc1-c1ccc(F)cc1F + CCCS(=O)(=O)Nc1ccc(F)c(C(=O)c2c[nH]c3ncc(Cl)cc23)c1F [PLX4720] (first compound 0.4 µM, partner dose 0.08 µM)",90.4%,85.9%,99.6%,78%,102%,97.6%,99.1%,–,–,67.1%
"NC(=O)c1ccc(N(C(N)=O)c2c(F)cccc2F)nc1-c1ccc(F)cc1F + CC(C)C[C@H](NC(=O)[C@H](Cc1ccccc1)NC(=O)c1cnccn1)B(O)O [Bortezomib] (first compound 0.4 µM, partner dose 0.001 µM)",91.5%,103%,111%,85.1%,102%,101%,114%,–,–,94.5%
"CCCCCCCCc1ccc(CCC(N)(CO)CO)cc1 [fingolimod] + c1cc(-c2cnn3cc(-c4ccc(OCCN5CCCCC5)cc4)cnc23)ccn1 [Dorsomorphin] (first compound 2 µM, partner dose 0.4 µM)",103%,84.7%,84.6%,84.7%,95.1%,87.2%,91%,88.5%,84.1%,79.9%
"CCCCCCCCc1ccc(CCC(N)(CO)CO)cc1 [fingolimod] + CCCS(=O)(=O)Nc1ccc(F)c(C(=O)c2c[nH]c3ncc(Cl)cc23)c1F [PLX4720] (first compound 2 µM, partner dose 0.08 µM)",81.2%,90.4%,95.1%,85.5%,74.7%,90.2%,98.8%,–,–,61.9%
"NC(=O)c1ccc(N(C(N)=O)c2c(F)cccc2F)nc1-c1ccc(F)cc1F + CNC(=O)c1cc(Oc2ccc(NC(=O)Nc3ccc(Cl)c(C(F)(F)F)c3)cc2)ccn1 [sorafenib] (first compound 0.4 µM, partner dose 0.4 µM)",87.4%,96.5%,87.3%,75.1%,88.4%,95.7%,106%,–,–,112%
"CCCCCCCCc1ccc(CCC(N)(CO)CO)cc1 [fingolimod] + NC(=O)Nc1cc(-c2cccc(F)c2)sc1C(=O)N[C@H]1CCCNC1 [AZD7762] (first compound 2 µM, partner dose 0.02 µM)",106%,112%,78.4%,82.9%,82.6%,99.7%,79.9%,99.4%,103%,95.8%
"NC(=O)c1ccc(N(C(N)=O)c2c(F)cccc2F)nc1-c1ccc(F)cc1F + CCN(CC)CCNC(=O)c1c(C)[nH]c(/C=C2\C(=O)Nc3ccc(F)cc32)c1C [sunitinib] (first compound 0.4 µM, partner dose 0.4 µM)",105%,84.2%,122%,95%,99.6%,123%,104%,–,–,103%
"NC(=O)c1ccc(N(C(N)=O)c2c(F)cccc2F)nc1-c1ccc(F)cc1F + CO[C@@H]1[C@H](N(C)C(=O)c2ccccc2)C[C@H]2O[C@]1(C)n1c3ccccc3c3c4c(c5c6ccccc6n2c5c31)C(=O)NC4 [Midostaurin] (first compound 0.4 µM, partner dose 0.08 µM)",92.3%,83.5%,83.2%,6.41%,92.9%,91.1%,121%,84.3%,65.5%,94.9%
"CCCCCCCCc1ccc(CCC(N)(CO)CO)cc1 [fingolimod] + Clc1ccc(Nc2nnc(Cc3ccncc3)c3ccccc23)cc1 [vatalanib] (first compound 2 µM, partner dose 2 µM)",101%,89.4%,52.3%,93.1%,85.7%,80.2%,103%,–,–,81.4%
"CCCCCCCCc1ccc(CCC(N)(CO)CO)cc1 [fingolimod] + CCCCCCCCCCCC1=C(O)C(=O)C=C(O)C1=O [Embelin] (first compound 2 µM, partner dose 1.2 µM)",96.5%,98.3%,85.4%,115%,76.4%,93.5%,94.2%,90.7%,76%,96.2%
"CCCCCCCCc1ccc(CCC(N)(CO)CO)cc1 [fingolimod] + CC(=O)O[C@@]12CO[C@@H]1C[C@H](O)[C@@]1(C)C(=O)[C@H](O)C3=C(C)[C@@H](OC(=O)[C@H](O)[C@@H](NC(=O)OC(C)(C)C)c4ccccc4)C[C@@](O)([C@@H](OC(=O)c4ccccc4)[C@H]21)C3(C)C [Docetaxel] (first compound 2 µM, partner dose 0.0001 µM)",73.8%,66.6%,46.4%,90.9%,67.8%,59.1%,56.1%,–,–,58.9%
"CCCCCCCCc1ccc(CCC(N)(CO)CO)cc1 [fingolimod] + Cc1cc(Nc2cc(N3CCN(C)CC3)nc(/C=C/c3ccccc3)n2)n[nH]1 [ENMD2076] (first compound 2 µM, partner dose 0.04 µM)",89.6%,84.3%,95.3%,93.6%,97.3%,110%,113%,–,–,92.1%
"NC(=O)c1ccc(N(C(N)=O)c2c(F)cccc2F)nc1-c1ccc(F)cc1F + CCCCCCCCc1ccc(CCC(N)(CO)CO)cc1 [fingolimod] (first compound 0.4 µM, partner dose 2 µM)",88.3%,80%,63.2%,82.4%,86.6%,91.6%,102%,–,–,64.7%
"NC(=O)c1ccc(N(C(N)=O)c2c(F)cccc2F)nc1-c1ccc(F)cc1F + CN1CCN(c2ccc3nc(-c4c(N)c5c(F)cccc5[nH]c4=O)[nH]c3c2)CC1 [Dovitinib] (first compound 0.4 µM, partner dose 0.1 µM)",106%,85%,85.8%,103%,82.8%,104%,94.4%,–,–,104%
"NC(=O)c1ccc(N(C(N)=O)c2c(F)cccc2F)nc1-c1ccc(F)cc1F + Cn1c(Nc2ccc(C(F)(F)F)cc2)nc2cc(Oc3ccnc(-c4ncc(C(F)(F)F)[nH]4)c3)ccc21 [CHIR265] (first compound 0.4 µM, partner dose 0.08 µM)",97.3%,90.3%,61.9%,91%,82.7%,101%,87%,–,–,67.7%
"CCCCCCCCc1ccc(CCC(N)(CO)CO)cc1 [fingolimod] + COc1cc2ncnc(Nc3ccc(Oc4ccccc4)cc3)c2cc1OC [SrcI1] (first compound 2 µM, partner dose 2 µM)",94.2%,89.4%,78.8%,98.1%,74%,95.1%,99.5%,95.4%,107%,82.7%
"Cc1ccc(NC(=O)c2cccc(N(C)C)c2)cc1NC(=O)c1ccc(O)cc1 + OCCn1cc(-c2cnc3nnn(Cc4ccc5ncccc5c4)c3n2)cn1 [PF04217903] (first compound 2 µM, partner dose 1 µM)",70.4%,93.5%,82.9%,104%,93.1%,114%,90.4%,105%,106%,103%
